Consider 42 compounds from ChEMBL document CHEMBL4888484, “Replenishing the malaria drug discovery pipeline: Screening and hit evaluation of the MMV Hit Generation Library 1 (HGL1) against asexual blood stage Plasmodium falciparum ,using a nano luciferase reporter read-out” (2022).

The structures appear in SMILES notation. About 540 (0.36%) of roughly 150,000 compounds showed an effect of 50% or more. This is one part of the list.

The assay deals with Plasmodium falciparum. Description: Primary screen in NF54 nanoGlo assay, in single point, at 2uM, 72h; a lower Z score goes with more inhibition. The note with it: timepoint 72 hour. Type of assay: functional, Erythrocyte.
In the case of `CN(C)[C@@H](CNS(=O)(=O)Cc1ccccc1Cl)c1ccc2c(c1)CCO2`, the “% Inhibition” value is given as -11% and the Z score came out at 1.76.

On to `CC[C@H](C)NC(=O)COCc1nnc(C(=O)Nc2cccc(F)c2)s1`, for which the “% Inhibition” value is reported as 0% and the Z score is 0.03.

`Cc1nc(C(=O)N2CCC=C(F)C2)c(C)o1`: the “% Inhibition” value is listed as -5% and the Z score was determined as 0.64.

In the case of `CCn1cc(C2OCCC2CNC(C)c2nnc(CC(C)C)o2)cn1` (centres undefined), the “% Inhibition” value came out at 0% and the Z score is recorded as 0.01.

As for `CC1(C)NC(=O)c2cc(Br)ccc2O1`, the “% Inhibition” value is -12% and the Z score is listed as 1.19.

As for `O=C(Nc1nc(-c2ccccc2)cs1)c1ccc2c(c1)C(=O)N(Cc1ccncc1)C2=O`, the “% Inhibition” value is -4% and the Z score came to 0.6.

For `Cc1cccn(CC(=O)NCC(=O)Nc2cccnc2)c1=O`, the “% Inhibition” value was -6% and the Z score worked out at 0.7.

For the compound `COCC[C@]1(NC(=O)c2ccc(F)cc2)CCN(C(=O)c2nccn2C)C1`, the “% Inhibition” value is recorded as 2% and the Z score is -0.31.

With `O=C(c1ccco1)N1CC(n2cnnc2[C@@H]2CCCO2)C1`, the “% Inhibition” value was 34% and the Z score was -4.55.

With `CCOC(=O)c1nnn2c1CO[C@H](c1ccc(Cl)cc1)C2`, the “% Inhibition” value is -11% and the Z score amounted to 1.25.

`CCOc1cccc(Cn2c(=O)c3sccc3n(CC(=O)Nc3ccccc3)c2=O)c1`: the “% Inhibition” value is 36% and the Z score is -1.53.

In the case of `COC(=O)N[C@H](C(=O)Nc1cnn2ccccc12)C(C)C`, the “% Inhibition” value is -15% and the Z score worked out at 1.99.

Take `Cc1ccc(N(C(=O)c2cccs2)C(=O)c2cccs2)nc1`: the “% Inhibition” value amounted to 5% and the Z score is -0.6.

As for `Clc1ccc(OCc2ccc(-c3nc4c5cn[nH]c5ncn4n3)cc2)c(Cl)c1`, the “% Inhibition” value was determined as 31% and the Z score is reported as -4.48.

As to `NC(=O)c1ccc2[nH]c(CN3CCN(c4ccccn4)CC3)cc(=O)c2c1`, the “% Inhibition” value was -12% and the Z score is recorded as 1.51.

Regarding `O=C(c1ccc(C(F)(F)F)cc1)N1C[C@@H]2C[C@H]1C(=O)N2c1ccccc1F`, the “% Inhibition” value is given as -2% and the Z score is 0.38.

Regarding `O=C(C[C@H]1CCCC1(F)F)Nc1cccc(-c2noc(C3CC3)n2)c1`, the “% Inhibition” value is -9% and the Z score is 1.72.

Take `Nc1ccc(CC(=O)N(CC2CC2)CC2CC2)cc1`: the “% Inhibition” value is -9% and the Z score worked out at 1.02.

For `COCCn1c(=O)n([C@H]2CCCN(C(=O)c3cccnc3)C2)c2ncccc21`, the “% Inhibition” value was -9% and the Z score is 1.08.

As to `CC1CCC(NCC(CO)Cc2ccccn2)C(C)C1` (centres undefined), the “% Inhibition” value was -11% and the Z score is 1.22.

Consider `O=C(Nc1cccc(OCC(F)F)n1)c1ccnnc1`, for which the “% Inhibition” value is -6% and the Z score is on record as 0.9.

Take `CCOCCCNc1oc(-c2cccnc2)nc1C#N`: the “% Inhibition” value is 1% and the Z score is -0.13.

As to `CC(=O)Nc1ccc(S(=O)(=O)[C@H](C#N)c2nc3ccccc3nc2NC2CCCC2)cc1`, the “% Inhibition” value is -10% and the Z score is 1.77.

Regarding `Cc1cc(C(=O)NCCCc2cnc3ncnn3c2)no1`, the “% Inhibition” value is given as 14% and the Z score is listed as -2.65.

Turning to `O=C(Nc1nc2c(ccc3ccccc32)s1)C1CCC1`, the “% Inhibition” value is on record as -2% and the Z score came out at 0.3.

Consider `O=C(N[C@H]1C[C@@H]2C[C@H]1CN2C(=O)Nc1ccc(Cl)cc1F)c1cccs1`, for which the “% Inhibition” value worked out at 0% and the Z score is reported as 0.

On to `Cc1c(NC(=O)N2CC[C@H](O)C2)cccc1N(C)C`, for which the “% Inhibition” value was -1% and the Z score came out at 0.12.

With `Cc1ccc(-c2nc(CC(=O)N3CCC(C(C)(C)C)C(O)C3)cs2)o1` (centres undefined), the “% Inhibition” value is given as -3% and the Z score turned out to be 0.35.

As for `Fc1ccc(-c2cc3c(N4CCCCC4)nccn3n2)cc1`, the “% Inhibition” value was 34% and the Z score is -1.33.

Take `Cc1nn(C)cc1[C@H](C)n1ccnc1-c1coc(-c2ccccc2)n1`: the “% Inhibition” value was -9% and the Z score was determined as 1.63.

Consider `CC[C@H](C)N(Cc1cc(Cl)ccc1OS(C)(=O)=O)C(=O)CC(C)(C)C`, for which the “% Inhibition” value is reported as -7% and the Z score is reported as 0.66.

For `Cc1nnc(CN(C)C(=O)c2c(C)oc3ccc(OCc4ccccc4)cc23)o1`, the “% Inhibition” value is on record as -14% and the Z score stood at 2.18.

As for `Cc1ccc2c(Nc3ccc(C)c(C)c3)c(C(=O)N3CCOCC3)cnc2n1`, the “% Inhibition” value is -6% and the Z score was found to be 1.09.

In the case of `CC(C)c1cc(NCCn2ccc(=O)[nH]c2=O)ncn1`, the “% Inhibition” value is recorded as -1% and the Z score is given as 0.09.

`CC(C)N(C)c1ccc(NC(=O)c2cccnc2O)cc1F`: the “% Inhibition” value is recorded as -6% and the Z score is recorded as 0.6.

Regarding `C[C@@H]1CN(C(=O)c2ccc(Cl)o2)CC[C@@]1(O)C1CCOCC1`, the “% Inhibition” value is -3% and the Z score stood at 0.52.

On to `O=C(c1cn2cccnc2n1)N1CCCCCC1`, for which the “% Inhibition” value is given as -17% and the Z score is recorded as 3.07.

On to `O=C(NCCn1cncn1)c1cc(=O)[nH]c2cc(F)ccc12`, for which the “% Inhibition” value is on record as 10% and the Z score is given as -1.33.

`O=c1[nH]nc(CCNCc2cnc(-c3ccc4ccccc4c3)nc2)[nH]1`: the “% Inhibition” value is reported as -5% and the Z score amounted to 0.71.

As to `O=C(O)[C@@H]1CCCCC[C@@H]1NS(=O)(=O)c1cccc(F)c1F`, the “% Inhibition” value was 1% and the Z score is recorded as -0.08.

On to `NC(=NCc1ccc(O)c(Br)c1)NC1CCCCCC1`, for which the “% Inhibition” value is -12% and the Z score is given as 1.32.

On to `COCc1nc([C@@H]2CCCCCN2C(=O)c2cccc(NC(C)=O)c2)no1`, for which the “% Inhibition” value was -2% and the Z score came out at 0.25.

By % Inhibition is commonly meant the change of the read-out against control, counted positive when it falls.
